Consider 64 compounds from PubChem BioAssay AID1347073 (National Center for Advancing Translational Sciences (NCATS), 2019).

Structures are written as SMILES. In all, about 45,000 compounds went through this assay and about 200 (0.44%) were called active. Not shown: some 7% with an inconclusive outcome. Calls follow the shape of the dose curve; as a rule, active = well fitted activation curve with a large enough effect; inconclusive = small, poorly fitted or top-dose-only effect; inactive = no such curve, though single readings can be large or run the other way. Some of the results follow.
Potency is read from the fitted curve at half-maximal effect.

The assay in a line: qHTS of TDP-43 Inhibitors: NCGC Sytravon Library Screen. Also: nearly all actives have a fitted effect of over 55% in size. As to growth rescue (activation): 0% is about no effect. The note with it: yeast TDP-43 toxicity rescue, BacTiter-Glo growth, 24 h; series mostly up to 46.1 µM; growth rescue (activation): at the top concentration. An outline of the steps: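 TDP-43-expressing yeast, pregrown in raffinose, seeded at OD600 0.02 in galactose medium with compound for 24 hr at 30 deg C. Growth read by BacTiter-Glo luminescence, so rescue of toxicity appears as activation.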
(In general: In qHTS, concentration-response curves come from the screen itself.)
Consider `CCN(Cc1ccccc1)C(=O)COC(=O)[C@@H]1CCCN1C(=O)c1cccs1`, for which the “growth rescue (activation)” value was inactive: 8.94%. Take `Cc1cc(C)n(CCNCc2c(C(=O)N3C[C@@H](C)O[C@@H](C)C3)nc3ccc(Cl)cn23)n1`: the “growth rescue (activation)” value is inactive: 10.2%. Still for that read-out and setting: next, `CCCc1ccc(OCCNC(=O)C2CCCCC2)cc1`: inactive: 10.9%; `CCCNC(=O)c1cc(C2CCCCN2C(=O)c2cccs2)on1` (centres undefined): inactive: 4.36%. As for `O=C(COC(=O)/C=C/c1ccc(F)cc1)NC1CCCCCC1`, the “growth rescue (activation)” value is inactive: 8.94%. Regarding `COc1cccc(CN(C)CC(=O)Nc2cc(S(=O)(=O)N3CCCC3)ccc2Cl)c1OC`, the “growth rescue (activation)” value is inactive: 1.97%. As for `O=C(NCc1ccco1)/C(=C\c1ccco1)NC(=O)c1ccccc1Cl`, the “growth rescue (activation)” value was inactive: 2.89%. Consider `CCc1nnc(NS(=O)(=O)c2ccc(NC(=O)c3ccc(S(=O)(=O)N(CC)CC)cc3)cc2)s1`, for which the “growth rescue (activation)” value is inactive: 12.6%. For the compound `Cc1cc([N+](=O)[O-])nn1Cc1noc(C(=O)NCc2ccc3c(c2)OCO3)n1`, the “growth rescue (activation)” value was inactive: 13.3%. As to `CCn1c(SCC(=O)NC2CCCC2)nc2c1c(=O)n(C)c(=O)n2C`, the “growth rescue (activation)” value was inactive: 10.3%. On the same count and under the same terms, next, `O=C(NCc1ccccn1)C1CCN(S(=O)(=O)c2cc(Cl)ccc2Cl)CC1`: inactive: 10.9%; `O=C(O)c1ccccc1-c1ccccc1C(=O)Nc1nc2ccccc2s1`: inactive: 11.6%; `COCCCNC(=O)Cn1cnc2sc(C)c(S(=O)(=O)N3CCN(c4ccccc4OC)CC3)c2c1=O`: inactive: -9.3%. Turning to `O=C(COC(=O)C1CCN(S(=O)(=O)c2ccc3c(c2)OCCO3)CC1)Nc1ccccc1OC(F)F`, the “growth rescue (activation)” value is inactive: 6.21%. For `CC1=C(C(=O)OCCCCCl)C(c2cc3c(cc2Br)OCO3)NC(=O)N1` (centres undefined), the “growth rescue (activation)” value was inactive: -2.28%. Turning to `COc1ccc(/C(C)=N/NC(=O)CNC(=O)C2COc3ccccc3O2)c(OC)c1` (centres undefined), the “growth rescue (activation)” value is inactive: 13.3%. For `COc1ccc(-c2nc3n(n2)C(=O)CC(c2ccc(Cl)cc2)S3)cc1` (centres undefined), the “growth rescue (activation)” value is inactive: 12.9%. `CCOC(=O)c1ccc(NC(=O)CC2NCCNC2=O)cc1` (centres undefined): the “growth rescue (activation)” value is inactive: 1.24%. In the case of `CCCCN(C)c1c(C)nc2ccc(C(=O)N3CCN(C(C)=O)CC3)cn12`, the “growth rescue (activation)” value is inactive: -5.57%.

Regarding `CC12CCC(C(=O)N(c3cccc(Cl)c3)C1=O)C2(C)C` (centres undefined), the “growth rescue (activation)” value is inactive: -4.17%. `CN1/C(=C\C(=O)COC(=O)c2ccc(O)c(O)c2)C(C)(C)c2ccccc21`: the “growth rescue (activation)” value is inactive: 32.4%. Regarding `CCc1nc2ccccc2c(C(=O)OCC(=O)NCc2ccc3c(c2)OCO3)c1C`, the “growth rescue (activation)” value is inactive: 13.6%. For `Cc1ccccc1NC(=S)N1CCN(Cc2ccccc2)CC1`, the “growth rescue (activation)” value was inactive: -8%. For `Cc1nc(CNC(=O)CC2C(=O)NCCN2Cc2ccc(F)cc2)cs1` (centres undefined), the “growth rescue (activation)” value was inactive: 11.2%.

In the case of `CSc1ccccc1OCc1cc(C(=O)NCCCc2ccccc2)no1`, the “growth rescue (activation)” value is inactive: 1.38%.

For the compound `CCc1cccc2c1NC(=O)C21N2CCCC2C(C(=O)c2ccc3ccccc3c2)C12C(=O)Nc1ccccc12` (centres undefined), the “growth rescue (activation)” value was inactive: 1.9%. For `COc1cccc(CN2CCC(C)(Oc3cccc(Cl)c3)C2)c1OC` (centres undefined), the “growth rescue (activation)” value is inactive: 5.43%.

For the compound `CCn1c(/C=C/N(C(C)=O)c2ccccc2)[n+](CCCS(=O)(=O)[O-])c2cc(Cl)c(Cl)cc21`, the “growth rescue (activation)” value was inactive: 4.69%. Consider `Cc1ccc(OCC(=O)NNC(=O)CSc2ncc(C#N)c(N)n2)cc1`, for which the “growth rescue (activation)” value is inactive: -20.8%.

`O=C(CCNC(=O)c1ccccc1Cl)NCC12CC3CC(CC(C3)C1)C2`: the “growth rescue (activation)” value was inactive: 2.03%.

`CCCCn1c(/C=C/c2ccco2)nc2ccccc21`: the “growth rescue (activation)” value was inactive: 4.83%.

Take `CCCN1C(=O)/C(=C/C=C2\N(CC)c3ccccc3C2(C)C)SC1=S`: the “growth rescue (activation)” value is inactive: 0.16%. Regarding `COc1cc(C2c3c(-c4cc(Cl)c(C)cc4O)n[nH]c3C(=O)N2Cc2cccnc2)ccc1O` (centres undefined), the “growth rescue (activation)” value is inactive: 10.5%. Still for that read-out and setting: as for `CCOC(=O)c1cc(NC(=O)CN2CCCC2)cc(C(=O)OCC)c1`, the figure is inactive: -1.87%; as for `O=C(Nc1ccc(F)cc1)N1CCN(CCc2ccccc2)CC1`, inactive: 3.86%. As for `O=C(/C=C/c1ccc(OCc2ccccc2)c(OCc2ccccc2)c1)c1cccnc1`, the “growth rescue (activation)” value was inactive: 17%. On to `Cc1ccc(N(C(=O)c2ccco2)C(C(=O)NC2CCCC2)c2cccnc2)cc1` (centres undefined), for which the “growth rescue (activation)” value is inactive: 8.03%.

Take `COc1ccc(CC(=O)Nc2nc(-c3ccccc3)c(C(C)=O)s2)cc1OC`: the “growth rescue (activation)” value was inactive: 7.05%. With `Cc1ccccc1C(=O)Nc1nnc(-c2ccc(C(C)(C)C)cc2)s1`, the “growth rescue (activation)” value is inactive: 6.75%. The same measure, in the same setting: next, `CC(C)(C)C(=O)N1CCN(c2ccc(NC(=O)c3ccc([N+](=O)[O-])o3)cc2)CC1`: inactive: 25.6%; `Cc1ccc(C(C(=O)NCC2CCCO2)N(C(=O)c2snc(C(N)=O)c2N)c2ccccc2)o1` (centres undefined): inactive: 14.8%. As for `O=C(NCc1ccc(Cl)cc1)c1cc2ccccc2o1`, the “growth rescue (activation)” value is inactive: 12.7%.

Take `CC1(c2ccc3c(c2)OCCO3)NC(=O)N(CC(=O)Nc2ccccc2F)C1=O` (centres undefined): the “growth rescue (activation)” value is inactive: -21.3%. Take `Cn1nnnc1N=N/C(=N/Nc1ccccc1)c1ccccc1`: the Potency is active: 6.31 µM. For the compound `CCN(CC)C(=O)Cn1c(=O)n(CCCCCC(=O)NCc2ccccc2Cl)c(=O)c2sccc21`, the “growth rescue (activation)” value was inactive: -3.46%.

`O=C(Nc1ccc(N2CCOCC2)cc1)c1csc(COCCO)n1`: the “growth rescue (activation)” value was inactive: 7.94%.

Take `Cc1cc(O)cc2c1C(=O)/C(=C/c1ccco1)O2`: the “growth rescue (activation)” value is inactive: 30.5%. In the case of `CCc1sc(C(=O)Nc2ccc3c(c2)OCO3)cc1C`, the “growth rescue (activation)” value was inactive: 16.8%.

For `CC(C)N(Cc1cc2ccccc2[nH]c1=O)C(=O)c1ccco1`, the “growth rescue (activation)” value was inactive: 9.44%.

Regarding `CCCCOc1ccc(C(=O)OCC(=O)N2CCCCCC2)cc1`, the “growth rescue (activation)” value is inactive: 26.2%. Turning to `COCC1CCN(Cc2cn(-c3ccccc3F)nc2-c2cc(C)sc2C)CC1`, the “growth rescue (activation)” value was inactive: -12%. Still for that read-out and setting: next, `CC1(C2CC2)NC(=O)N(CC(=O)N2CCN(c3cccc(C(F)(F)F)c3)CC2)C1=O` (centres undefined): inactive: 2.76%. For `COc1ccc(C(=O)Nc2cc(C(F)(F)F)ccc2-n2cncn2)cc1`, the “growth rescue (activation)” value was inactive: 16.5%. In the case of `CCCCCC(=O)N1CCN(CCN=CC2=C(O)CC(c3ccc(OC)c(OC)c3)CC2=O)CC1` (centres undefined), the “growth rescue (activation)” value was inactive: 17.6%. Same read-out and setting: next, `COC(=O)c1ccccc1NC(=O)N1c2ccccc2Sc2ccccc21`: inactive: 13.2%; `CC(C)OC(=O)c1cccc(C(=O)OCc2ccco2)n1`: inactive: 8.15%. `CCOC(=O)Cc1csc(NC(=O)Cc2ccccc2[N+](=O)[O-])n1`: the “growth rescue (activation)” value is inactive: 9.83%. Turning to `CCC(C)N(C(=O)COC(=O)C1C(C(=O)OC)=C(C)NC(C)=C1C(=O)OC)C1CCS(=O)(=O)C1` (centres undefined), the “growth rescue (activation)” value is inactive: 4.22%.

On to `Cc1ccc(OCC(=O)N2C(C)CCCC2C)c([N+](=O)[O-])n1` (centres undefined), for which the “growth rescue (activation)” value is inactive: 27.2%. In the case of `Cc1ccc(NC(=O)C2(S(=O)(=O)c3ccc(Cl)cc3)CC2)c(Br)c1`, the “growth rescue (activation)” value was inactive: -5.16%. Consider `CN1c2ccccc2Oc2nnc(N3CCN(Cc4ccccc4)CC3)cc21`, for which the “growth rescue (activation)” value is inactive: -2.48%. Regarding `CC(C)Nc1ncnc2c1ncn2[C@H]1CN(Cc2ccco2)C[C@@H](CO)O1`, the “growth rescue (activation)” value was inactive: 4.91%.

For `COc1ccc2c(-c3ccccc3)cc(SCC(=O)NC(N)=O)nc2c1`, the “growth rescue (activation)” value was inactive: 7.07%.

Take `Cc1ccc(S(=O)(=O)N(C)C)cc1NC(=S)Nc1ccc2[nH]c(=O)[nH]c2c1`: the “growth rescue (activation)” value was inactive: -20.2%.
